# Variants at the background level are over-represented here.
# B1: TPR 5TU (parent)
# chain: GGAUCUUCUCGAUCUAACAAAAAAGACAAAUCUGCCACAAAGCUUGAGAGCAUCUUCGGAUGCAGAGGCGGCAGCCUUCGGUGGCGCGAUAGCGCCAACGUUCUCAACUAUGACACGCAAAACGCGUGCUCCGUUGAAUGGAGUUUAUCAUG
# Variants of: B1
# Assay: polymerase ribozyme fitness, log enrichment relative to wild type (log ratio); higher = more active; in vitro selection for triplet polymerase activity
# Summary of the method: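 Mutant libraries of each subunit of a heterodimeric triplet polymerase ribozyme were built by PCR and transcribed. Each library went through one round of in vitro selection in triplicate: annealing with biotinylated primer, partner subunit and triplets, frozen incubation at −7 °C, gel excision of extended constructs, streptavidin-bead capture and RT-PCR. Input and output libraries were Illumina-sequenced; only genotypes with ≥10 input reads and ≥1 read per output were kept. Fitness is log2(genotype enrichment/wild-type enrichment), using inverse-variance-weighted replicate averages.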
row,Variant,polymerase ribozyme fitness (log ratio)
1,A26C C38U A52G C54A G86C,≤ -4.2
2,A26C C43G C51U G65U C76A G136C,≤ -4.2
3,A26C C43U C96U A97U G141C,≤ -4.2
4,A26C C51A G92A G112U C118A,≤ -4.2
5,A26C C51G C95U,≤ -4.2
6,A26C C51U G67A C93U C105U,≤ -4.2
7,A26C C57A G68C U134A,≤ -4.2
8,A26C C63A U127A,≤ -4.2
9,A26C C69U U134A G143U,≤ -4.2
10,A26C C72U U82A G84A U101G,≤ -4.2
11,A26C C75A U82A C95A U102C G143C,≤ -4.2
12,A26C C75G U90G,≤ -4.2
13,A26C C76G G88U C132G,≤ -4.2
14,A26C C85G C87G C95G G124U,≤ -4.2
15,A26C C85U,-1.86
16,A26C C96U A98C A107G,≤ -4.2
17,A26C G68A G84C C85A C114U,≤ -4.2
18,A26C G68U C75A C87U A113U A119U G133C U144G U148A,≤ -4.2
19,A26C G71A C72G C99U C105G A120G G143A,≤ -4.2
20,A26C G81A C87U G88C G124C G136U G140C,≤ -4.2
21,A26C G83U A98U U101G G136U,≤ -4.2
22,A26C G84C C108G G133A,≤ -4.2
23,A26C G86U A110U U145A,≤ -4.2
24,A26C G92A C103U A106G G141C U145C,≤ -4.2

row,Variant,polymerase ribozyme fitness (log ratio)
1,A26C U31A A49G A52C A91C G143C C149A A150U,≤ -4.2
2,A26C U56A A60U U82G,-2.45
3,A26C U56A C76A U77G C87G C132G,≤ -4.2
4,A26C U56A G88U A119U A121C A122G G140U,≤ -4.2
5,A26C U61A A64G U78A A120U,≤ -4.2
6,A26C U82A A137G,-2.93
7,A26C U82A C95A,-2
8,A26G,-2.11
9,A26G A28G C87A C105G C108U C125A,≤ -4.2
10,A26G A28U C108G,≤ -4.2
11,A26G A29C C43G C96G U144A,≤ -4.2
12,A26G A29U G58U U61A C76U A91G A120U,≤ -4.2
13,A26G A39U C72U C87G C103U,≤ -4.2
14,A26G A40G C43A U53A G67U C69G A115U A121G U146C A147C,≤ -4.2
15,A26G A41C C85A C103A,≤ -4.2
16,A26G A41U C43G G50U C54U,≤ -4.2
17,A26G A49G C57U G59A C72A,≤ -4.2
18,A26G A60G C69U C93G,≤ -4.2
19,A26G C27G C36G G71A C75U C96A C129G,≤ -4.2
20,A26G C27U U53A A64U U77G A121G A122G A137G,≤ -4.2
21,A26G C32A A39C C54A A150G,≤ -4.2
22,A26G C32G C35U C57U C63A A120C U135G U146A,≤ -4.2
23,A26G C35G A52C U53G C57G C95A A115U G143U,≤ -4.2
24,A26G C35U G86A C118A U130G,≤ -4.2

row,Variant,polymerase ribozyme fitness (log ratio)
1,A26G C36A,≤ -4.2
2,A26G C36U C87G C95A G126A,≤ -4.2
3,A26G C43A C69U A106U C125G G126C U139C,≤ -4.2
4,A26G C69U C79U C87U A91U,≤ -4.2
5,A26G C85A U135G A147G,≤ -4.2
6,A26G G42A C99A C114A G136C G143U A147G,≤ -4.2
7,A26G G83A U104G U109G,≤ -4.2
8,A26G G84A C99A U102A C116G,≤ -4.2
9,A26G G88C U101C G141A,≤ -4.2
10,A26G U31A A40G G42U A60U G80C C114U U134A U144C,≤ -4.2
11,A26G U45A G48U C95U C108G G126U,≤ -4.2
12,A26G U55A C96U A97U C105U A119C,≤ -4.2
13,A26G U55A C96U A137C,≤ -4.2
14,A26G U61A C85G U135C,≤ -4.2
15,A26G U78C,-3.95
16,A26U,-1.21
17,A26U A28U C32A A52U A73U A91U G92A A113G U148A G152U,≤ -4.2
18,A26U A29U C32U U56A C63G C105G U135C,≤ -4.2
19,A26U A29U G48A G88A C132U,≤ -4.2
20,A26U A29U G50A U56A C69G C96A,≤ -4.2
21,A26U A30C C36A U61A C85U C95G G117U,≤ -4.2
22,A26U A30C G71C C79A C125A,≤ -4.2
23,A26U A30U C93A A115U G126C,≤ -4.2
24,A26U A30U G140U,≤ -4.2

row,Variant,polymerase ribozyme fitness (log ratio)
1,A26U A37C C93G C105G G128U,≤ -4.2
2,A26U A37C C95G A107C G152U,≤ -4.2
3,A26U A39C U53A C85A C87A C108A U151A,≤ -4.2
4,A26U A39G A60G G80A C85U U102A,≤ -4.2
5,A26U A39G G71U,≤ -4.2
6,A26U A49C U82C A97U A113G,≤ -4.2
7,A26U A49G A89C U134C U139G G140A,≤ -4.2
8,A26U A49G C57A G88U G92A G100A A106U C125U,≤ -4.2
9,A26U A49G U55A A60G C96U G136A,≤ -4.2
10,A26U A49U G59U,≤ -4.2
11,A26U A49U G68U C72U G84A G86U G112A A122G,≤ -4.2
12,A26U A52G C57A C105A A107U C114U G141A C149A,≤ -4.2
13,A26U A66C C72G G84U C131G A142C,≤ -4.2
14,A26U A98G U127G,≤ -4.2
15,A26U A107U,≤ -4.2
16,A26U C27G A28G G70A U139A,≤ -4.2
17,A26U C32G U45A C57A G83U A121U,≤ -4.2
18,A26U C32U U45A G50U U55A G92A,≤ -4.2
19,A26U C35G C76A G86C,≤ -4.2
20,A26U C35G G67A C85U G141C,≤ -4.2
21,A26U C36A G68C G86U G88C,≤ -4.2
22,A26U C36G A37U C51U G124C,≤ -4.2
23,A26U C36U U55A G68U C85U G92U C125G A147U,≤ -4.2
24,A26U C38A A106U A107C A110G A120G,≤ -4.2

row,Variant,polymerase ribozyme fitness (log ratio)
1,A26U C43A A52U U78G C123U,≤ -4.2
2,A26U C51A A52C U90G U139G U148G,≤ -4.2
3,A26U C54A G67U,≤ -4.2
4,A26U C54A G71A A122C U139A,≤ -4.2
5,A26U C54U C95U,-1.76
6,A26U C57A A60G A64U G84U,≤ -4.2
7,A26U C85A A97U,≤ -4.2
8,A26U C85U C105U A142C,-3.69
9,A26U C93G,≤ -4.2
10,A26U G34C G83U C95G U145A A147U,≤ -4.2
11,A26U G46U G48U G81U G83C C99G,≤ -4.2
12,A26U G46U G58A A73U C85G U111G A150U,≤ -4.2
13,A26U G48A G70U C125U,≤ -4.2
14,A26U G50A G92C,≤ -4.2
15,A26U G50A U61C A73U U82G C95G,≤ -4.2
16,A26U G50C C85G C95A C96U G140U,≤ -4.2
17,A26U G59A C87G,≤ -4.2
18,A26U G59U U90G U135G G143A U144G,≤ -4.2
19,A26U G62U A122G C132U,≤ -4.2
20,A26U G62U U135A,-2.77
21,A26U G68C G86U C103G A115C,≤ -4.2
22,A26U G71U,≤ -4.2
23,A26U G83C C125A U145C,≤ -4.2
24,A26U G133U,≤ -4.2

row,Variant,polymerase ribozyme fitness (log ratio)
1,A26U U33C A47C A106G,≤ -4.2
2,A26U U33G C38U C76U U78G G84C G86A A107G U127C,≤ -4.2
3,A26U U44A G58A C87U A107G C123G G141C,-3.93
4,A26U U44G A52G C57A C75U,≤ -4.2
5,A26U U45A G83U G92C A122U,≤ -4.2
6,A26U U53A C75U C85U A137G,≤ -4.2
7,A26U U78A C96A C116U U146C,≤ -4.2
8,A26U U104C G124C,-3.3
9,A26U U148A,-4.11
10,C27A,-2.95
11,C27A A28U C38U A39U A47U,≤ -4.2
12,C27A A30U U44A C57A A97G A98U A119C A120G G128A,≤ -4.2
13,C27A A37U A39G A40G U78G C79U C87G C103U,≤ -4.2
14,C27A A37U C63G G68A,≤ -4.2
15,C27A A39G U53C C95A A121U G136C,≤ -4.2
16,C27A A39U U61A G80U A91U G94A C103G A150G,≤ -4.2
17,C27A A41C G81C G84U C123U,≤ -4.2
18,C27A A49U C87A U134C G141A,≤ -4.2
19,C27A A52G G128U C129U C131G A147U,≤ -4.2
20,C27A A52U C87A A119C C149U,≤ -4.2
21,C27A C35A G84U C103G,≤ -4.2
22,C27A C35U A49C A66U G140C A150G,≤ -4.2
23,C27A C51U A52G A73U U90C C95U,≤ -4.2
24,C27A C57U G68U G92A C93U C95G,≤ -4.2

row,Variant,polymerase ribozyme fitness (log ratio)
1,C27A C63A G80C C85G A119C U144A,≤ -4.2
2,C27A C69U G70C G92A C95U C103G U104G,≤ -4.2
3,C27A C72U G92C A98G U104G U109C A115C,≤ -4.2
4,C27A C75A U101G,≤ -4.2
5,C27A C76A G83A G88A,≤ -4.2
6,C27A C76G,≤ -4.2
7,C27A C87A A110U C116A G140U,≤ -4.2
8,C27A G48C A52C U55A G68U C95A A138C,≤ -4.2
9,C27A G58C,≤ -4.2
10,C27A G58C U111C,≤ -4.2
11,C27A G59A C95A U135C,≤ -4.2
12,C27A G59C C85A A89U U104A,≤ -4.2
13,C27A G62A C79G A91U A122U C131U,≤ -4.2
14,C27A G67C C96U C123A G141C,≤ -4.2
15,C27A U31C A47U C85U U134G,≤ -4.2
16,C27A U31G C63G C95U C103A U144A,≤ -4.2
17,C27A U33C C85A A106G U144A U151C,≤ -4.2
18,C27A U44A G48A,≤ -4.2
19,C27A U44G U78G A107U,≤ -4.2
20,C27A U45A G58C C95U A115C C149G G152A,≤ -4.2
21,C27A U45C G59A G74U A97U C149U,≤ -4.2
22,C27A U61A G86A,≤ -4.2
23,C27A U61A G88C G92A G117U U139G,≤ -4.2

# — the RNAGym collection of RNA variant scans (doi:10.1073/pnas.2313332121)
